From the supplement of paper PMC4466236
Over roughly 33,000 sequences, “E-score (dimensionless, -0.5 to 0.5)” has its median near -0.058; the highest 2% begin near 0.35. The list shows a part of the results.

system: MvaT; test: PBM 8-mer E-score (mean of HK and ME arrays) (E-score (dimensionless, -0.5 to 0.5)); higher = stronger relative binding preference; most listed sequences are background and not binding sites
In short: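 Full-length P. aeruginosa MvaT, with glutathione S-transferase fused to its N-terminus (cloned into pTH6838 by isothermal assembly), was tested by protein binding microarray using a previously described protocol. Two universal double-stranded 60-mer arrays (ME and HK) were used, each with a constant 25-mer primer region and a variable 35-mer region covering all 8-mers. The rank-based 8-mer E-score (-0.5 to 0.5) is the mean of the two arrays, parsed with a custom Python script.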

Sequence | PBM 8-mer E-score
AAAGCCTT | 0.0794
CTGCATAA | 0.0595
ATTCTTCG | 0.155
GAGGCCAC | -0.194
CGTGATAA | 0.21
AGTTCACC | 0.0614
GTTTGGTA | 0.106
CCTCACAG | -0.0896
CAATGATA | 0.15
CAGCGCAG | -0.295
CACGCTGA | -0.0407
CAAGACCC | -0.295
AAGACTCG | -0.0174
CCAGTGAA | -0.0909
GACGCCTA | -0.199
CCGCGGCG | -0.0831
ACTTCATC | 0.0586
GAAGGTAC | -0.141
AGGTCGTG | -0.0505
TCCCCAAA | -0.0366
CGATTGTC | -0.0957
CAAAAGCC | -0.051
CTGATCGA | -0.301
AATACAGC | 0.247
CTCTTATA | 0.289

Sequence | PBM 8-mer E-score
AGATGCAG | 0.05
AATTATCT | 0.296
ATACTTTG | 0.236
GGTCGTGA | -0.104
GAGAACCC | -0.203
TCAATGGA | 0.0508
ACCTGACC | -0.204
AAAAACAC | 0.087
GACCCCAC | -0.415
CAGTGCAC | -0.013
AAGAACAC | -0.119
AAGGCTGA | -0.182
AAATTGTG | 0.137
ACCGAACT | 0.124
CTGGTTTC | -0.13
AGCACAAC | -0.022
ATCGCTCA | -0.078
ATTCGATG | -0.00134
CCGACCGG | -0.327
CGATGCAA | -0.0524
ATGACATA | 0.116
CATAGGTA | -0.118
ATTTGAGC | 0.167
ACAGCCCA | -0.183
CAAGACGA | -0.0256

Sequence | PBM 8-mer E-score
ACGTTGAT | 0.0529
CTGGCGGC | -0.148
AGTGTGCA | 0.136
GTAGCGTA | 0.0466
ATAGGGAT | 0.00192
CACTGGAC | -0.115
GCGCCTGA | -0.367
AAGCACCG | -0.14
AGTTCATA | 0.181
CTTGCTTC | -0.0582
GCGAGGAC | -0.247
CGACGGAA | 0.0507
GTCACAAC | 0.14
CCACACAC | -0.0304
CCCCTAGA | -0.22
AGAAATCA | -0.0327
ACCGAGGC | -0.132
GACGGTCA | -0.284
GGTCTCGA | -0.126
ATGGAAAT | 0.19
GGCAGCGA | -0.234
GGGATACA | 0.0517
AACGCGCG | 0.0917
CTCCGGAC | -0.184
CGCTTCGA | 0.00173

Sequence | PBM 8-mer E-score
CAGACGAA | -0.0737
GGCCAGAA | -0.026
CGAGCAAA | 0.00059
AAACCGCG | -0.0579
CCGAGATA | 0.025
ACAACAAA | 0.275
CCTCGGCA | -0.173
CTCTGGAA | -0.0543
ACTACTTA | 0.377
TCCCGGGA | -0.118
GGGAAATA | 0.243
CTATCTGC | -0.126
CCCGCAGC | -0.265
GCCACGTA | -0.118
GATCGCAA | -0.0666
CAACGGCA | -0.199
GGCAGTTA | 0.201
AAATGAAC | 0.132
CATGCTTC | -0.108
CGCGGTCC | -0.214
CAGCTACG | -0.271
GACAGATA | 0.15
GTCATTAA | 0.116
CCTAGCAG | -0.214
CTACGCAA | -0.0595

Sequence | PBM 8-mer E-score
AGTCTTAT | 0.263
AGTTTACG | 0.00749
GTTGGTTA | 0.165
AGCCACGA | -0.0643
AGTGATGG | -0.129
CACCTGGG | -0.234
AGGATAAC | 0.102
ATCGATAC | 0.113
AGGCCATA | -0.16
ACTTAGTG | 0.218
TAGAAAAA | 0.0922
AACTATGA | 0.291
GAACGTCC | -0.275
CCATCGAC | -0.0705
ATGGTAAC | 0.0827
GGTCGATA | -0.0301
CGACTCCA | -0.0608
GAGATGAC | -0.248
CCCCATCG | -0.138
CGGACATA | 0.0773
ATACGGCC | -0.118
CCATCTGC | -0.15
AACCAGAC | -0.165
GCCAAATA | 0.0496
GTGGTGCA | -0.128

Sequence | PBM 8-mer E-score
GCCGATCC | -0.286
AGTGCAAC | -0.00465
CGCAATAC | 0.0362
GAGCATCC | -0.325
AAACGCAA | 0.199
GTGCTCGA | -0.153
GTGTGGTA | 0.118
GACTTTGA | -0.0787
CCCAGTGA | -0.0637
ATAATATC | 0.437
AAGTCGGG | -0.0449
CCCAGTTA | 0.0279
CACATGTA | 0.166
ACCGCCCG | -0.146
CTGTATTA | 0.36
AGTCTCAT | -0.00927
CGTTGGTA | 0.0173
CTCGACAC | -0.149
CTATTGGA | 0.0218
CTAGGGAA | -0.0329
GGATAGTA | 0.128
CTGATTAC | 0.0726
GTCACCGA | -0.18
CCGTAGGC | -0.302
GACAGCCC | -0.303

Sequence | PBM 8-mer E-score
ACATGCAC | 0.0853
TATTAGCA | 0.276
CACGGTAA | 0.0547
CATTACGG | 0.00765
GGTCTAGA | -0.0778
GCGCATAC | 0.0328
ACGTCTAA | -0.058
CCTTTTCG | -0.053
ATCTAAAG | 0.171
AGTTGCCG | -0.0999
CCGTTCAG | -0.137
CTTAGGCC | -0.17
CTCCCCAA | -0.229
AATTATTA | 0.438
CTCCTCAA | -0.132
CGCTAGCC | -0.189
GTTCCCAA | -0.0583
CCGATATA | 0.333
GCGCAACC | -0.0969
CGCAACAC | -0.112
CCGTCCAG | -0.194
GCTAAGCC | -0.234
GTGCCATA | -0.0269
GATGATGC | -0.077
TAACGCAA | 0.195

Sequence | PBM 8-mer E-score
CCGCGTAG | -0.238
GGATACTA | 0.0363
ACACAGGC | -0.0277
GAACGTTA | 0.207
GATCCCCC | -0.341
GGAACCAA | 0.047
AAGAGTGG | -0.155
CTGCTGCA | -0.218
CGCAGAAC | -0.11
CATTTCGG | -0.024
GAAACACA | 0.0961
GACCCATC | -0.249
CGCGGAAA | 0.0617
CAGCGACA | -0.0735
ACGGATAA | 0.0259
CCACTTCC | -0.201
AGTTTGAC | 0.12
ATCAAGAC | -0.0263
AACTTTGA | 0.247
ACCCGTCG | -0.0362
AGGAAAGA | -0.097
CGCATCTC | -0.202
AGCACTCG | -0.164
AGTCCTGG | -0.086
CCATCCTC | -0.277

Sequence | PBM 8-mer E-score
CAAAGATG | 0.0517
TCCTCGCA | -0.126
ATGGAAAG | 0.0412
GCAACCGC | -0.234
ACGCAAGA | -0.00773
GATTGGAA | 0.0482
GATACTAA | 0.213
AAGTCATA | 0.209
AGAGGGGA | -0.144
GTCTCACA | -0.052
AACCGGCG | -0.083
CCGTTTCA | -0.0886
ACAGGTTG | -0.21
CCACGCTA | -0.0651
CAGTGTCA | -0.168
TACATAGA | 0.143
AGCCTCCG | -0.33
CTCTACGA | -0.163
AAATGCTA | 0.142
